Laboratory results taken from PubChem BioAssay AID1963320 (National Center for Advancing Translational Sciences (NCATS), 2024).
The whole screen tested about 1,300 compounds, of which about 560 (43%) were called active. The set was probably picked from earlier hits. The inconclusive results got no clear call from the source; some entries with a clear call stand among them for comparison. Calls follow the shape of the dose curve; as a rule, active = well fitted inhibition curve with a large enough effect; inconclusive = small, poorly fitted or top-dose-only effect; inactive = flat fitted curve, though single readings scatter. Potencies beside an inconclusive call are fits to weak or partial responses and may not hold up.

Target: Luciferin 4-monooxygenase (Photinus pyralis) (UniProt P08659)
Assay: Firefly luciferase (FLuc-C-HiBiT) enzymatic inhibition screen - Functional assay
Conditions: purified FLuc-C-HiBiT enzyme, luciferin luminescence; series mostly up to 32.7 µM; activity change, negative = inhibition: at the top concentration
Method in brief: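 Luminescence from D-luciferin turnover (10 uM, at KM; ATP 10 uM), read 5-10 min after substrate addition. Beforehand, 10 nM FLuc-C-HiBiT sat with compounds over 30 min at room temperature; PTC124 as control.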
% is scaled to controls: 0 for no effect and ±100 for the full control effect; potency is read from the fitted curve at half-maximal effect; tags tell the direction and shape of the fitted curve.
Also: nearly all actives have a fitted effect of over 70% in size.

UniProt P08659, sequence (P08659 whole entry, looked up): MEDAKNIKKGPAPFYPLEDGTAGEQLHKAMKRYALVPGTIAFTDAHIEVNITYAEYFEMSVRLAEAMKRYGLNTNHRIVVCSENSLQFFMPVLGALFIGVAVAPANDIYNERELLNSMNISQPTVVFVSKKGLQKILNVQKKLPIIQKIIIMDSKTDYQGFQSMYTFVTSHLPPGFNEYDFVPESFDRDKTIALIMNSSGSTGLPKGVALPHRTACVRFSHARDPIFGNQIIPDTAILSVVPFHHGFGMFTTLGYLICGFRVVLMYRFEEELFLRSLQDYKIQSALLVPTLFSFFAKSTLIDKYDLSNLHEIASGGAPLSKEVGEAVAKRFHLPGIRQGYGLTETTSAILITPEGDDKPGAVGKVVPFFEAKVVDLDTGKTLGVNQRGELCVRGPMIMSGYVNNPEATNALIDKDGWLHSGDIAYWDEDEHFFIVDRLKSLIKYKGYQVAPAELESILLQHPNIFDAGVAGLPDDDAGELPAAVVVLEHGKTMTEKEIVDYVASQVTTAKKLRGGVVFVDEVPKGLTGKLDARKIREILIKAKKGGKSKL

Which “activity change, negative = inhibition” value does the source give for `CC(=O)c1ccc(NS(=O)(=O)c2cccc(S(=O)(=O)c3ccc(Cl)cc3)c2)cc1` here?
The value was inactive: -9.92%.

For `Cc1ccc(NC(=O)c2ccc3c(c2)N(C)C2CCCN2C3=O)cc1C` (centres undefined), which Potency is on record?
The Potency was inconclusive: 12.4 µM [inhibitor, partial curve, poor fit].

For `Cc1cc(NC(=O)c2ccc(CN3CC[C@H](O)C3)cc2)ccc1F`, which Potency is on record?
The Potency was active: 1.97 µM.

Which Potency does the source give for `Cc1nonc1COc1ccc(C(=O)Nc2cccc(-c3nc4ccccc4s3)c2)cc1` here?
The Potency was inconclusive: 9.89 µM [inhibitor, partial curve].

How did the “activity change, negative = inhibition” value turn out when `COc1ccc(CNC(=O)C[C@@H]2C[C@@H](C(C)C)[C@H](CNC(=O)c3cccnc3)C=C2C)cc1` was run?
The value was inactive: 7.04%.

How did the Potency turn out when `CC(=O)NC1(C)CN(Cc2ccc(-c3ccccc3OCc3ccccc3)s2)C1` was run?
Its Potency is inconclusive: 22.7 µM [inhibitor, partial curve, poor fit].

With `CC1CCN(C(=O)c2cc3c(s2)CCC(C(=O)O)C3)CC1` (centres undefined) as the compound, how does the Potency read?
The Potency was inconclusive: 14 µM [inhibitor, partial curve, poor fit].

How did the Potency turn out when `O=C(Nc1ccc(F)cc1)C1CCN(C(=O)c2ncn3c2COC(c2ccccc2)C3)CC1` (centres undefined) was run?
The Potency was active: 1.76 µM.

Which “activity change, negative = inhibition” value does the source give for `N#Cc1c(NC(=O)c2cccc3ccccc23)sc2c1CCCC2` here?
Its value is inactive: -19.5%.

For `Cc1cc(CNC(=O)C2CCCCn3nnnc32)c2[nH]c(-c3ccccc3)c(C)c2c1` (centres undefined), which Potency is on record?
Its Potency is inconclusive: 11.1 µM [inhibitor, partial curve].

With `OCc1ccnc(-c2ccc(-c3ccn[nH]3)cc2)c1` as the compound, how does the Potency read?
Its Potency is inconclusive: 9.89 µM [inhibitor, partial curve].

`Cc1ccc(NC(=O)CCc2c(C)nc3cc(-c4ccccc4)nn3c2C)cc1F` was tested. Which Potency did it give?
Its Potency is inconclusive: 11.1 µM [inhibitor, partial curve].

For `Cc1nc(CN2CCOc3c(O)cc(-c4nc5ccccc5s4)cc3C2)no1`, which “activity change, negative = inhibition” value is on record?
Its value is inactive: -10.6%.

`O=C(Nc1cc(Cl)cc(Cl)c1)c1ccn2nccc2c1` was tested. Which Potency did it give?
The Potency was inconclusive: 18 µM [inhibitor, partial curve].

For `O=C(Nc1ccccc1)c1nc2c(o1)CCN(CC1CC1)CC2`, which Potency is on record?
Its Potency is inconclusive: 16.1 µM [inhibitor, partial curve].

With `Nc1nc(N2CCC3(CC2)NC(=O)CC3C(=O)O)c2[nH]cnc2n1` (centres undefined) as the compound, how does the “activity change, negative = inhibition” value read?
Its value is inactive: 3.87%.

With `O=C(O)C1(CCc2ccccc2)CCCN(c2ncnc3nc[nH]c23)C1` (centres undefined) as the compound, how does the “activity change, negative = inhibition” value read?
Its value is inactive: 1.21%.

With `OC1CCCN(c2ccc(-c3nc(-c4cccc(C(F)(F)F)c4)no3)cn2)C1` (centres undefined) as the compound, how does the Potency read?
The Potency was inconclusive: 5.56 µM [inhibitor, partial curve].

For `CN1CCN(c2ccc(-c3cc4c(ccn4C)c(C(=O)NCCc4ccccn4)n3)cc2)CC1`, which Potency is on record?
Its Potency is active: 2.79 µM.

Which “activity change, negative = inhibition” value does the source give for `Cc1cccc(CCNC(=O)c2sc3nc4n(c(=O)c3c2C)CCCC4)c1` here?
Its value is inactive: -5.47%.

`Cc1ccc(-c2cc3c(=O)n(CCNC(=O)c4ccoc4)ccn3n2)cc1C` was tested. Which Potency did it give?
Its Potency is inconclusive: 9.89 µM [inhibitor, partial curve].

`NS(=O)(=O)c1cccc(N=Cc2c(O)[nH]c3ccccc23)c1` was tested. Which “activity change, negative = inhibition” value did it give?
Its value is inactive: -12.2%.

With `O=C(NC1CCCCCC1)C1CCN(C(=O)c2ncn3c2COC(c2ccccc2)C3)CC1` (centres undefined) as the compound, how does the Potency read?
The Potency was active: 7.85 µM.

Which “activity change, negative = inhibition” value does the source give for `O=C(CCCS(=O)(=O)c1ccc(Cl)cc1)Nc1ccc(O)c(-c2nc3ccccc3s2)c1` here?
The value was inactive: 0.373%.

How did the Potency turn out when `Cc1ccccc1-c1noc(-c2ccc(N3CCCC3)c([N+](=O)[O-])c2)n1` was run?
The Potency was inconclusive: 11.1 µM [inhibitor, partial curve].

With `Cc1ccc(OCC(=O)Nc2cccc(-c3nc4ccccc4s3)c2)cc1` as the compound, how does the Potency read?
The Potency was active: 9.89 µM.

`Cc1ccc(NC(=O)N2CCC(CCNC(=O)C3CC3)CC2)cc1` was tested. Which Potency did it give?
Its Potency is inconclusive: 11.1 µM [inhibitor, partial curve].

With `CCC(=O)NCCC1CCN(C(=O)Nc2ccc(C)cc2)CC1` as the compound, how does the Potency read?
Its Potency is inconclusive: 12.4 µM [inhibitor, partial curve].

How did the Potency turn out when `CC(=O)NCCC1CCN(C(=O)Nc2ccc(C)cc2)CC1` was run?
Its Potency is inconclusive: 12.4 µM [inhibitor, partial curve].

With `Cc1c(-c2ccccc2F)[nH]c2ccc(CNC(=O)C3C=CCN3)cc12` (centres undefined) as the compound, how does the Potency read?
Its Potency is inconclusive: 12.4 µM [inhibitor, partial curve].

For `Oc1cc(-c2nc3ccccc3s2)cc2c1OCCN(Cc1cccn1-c1ncccn1)C2`, which “activity change, negative = inhibition” value is on record?
Its value is inactive: -12.7%.

`Cc1ccc(-c2ncc(NC(=O)c3ccccc3F)cn2)cc1` was tested. Which Potency did it give?
Its Potency is active: 1.97 µM.

For `CCNc1cc(N2CCC(CCC(=O)Nc3ccc4c(c3)OCCO4)CC2)ncn1`, which Potency is on record?
Its Potency is inconclusive: 12.4 µM [inhibitor, partial curve].

How did the Potency turn out when `Cc1ccc(-n2ncc3c(N4CCC(C(N)=O)CC4)ncnc32)cc1` was run?
The Potency was inconclusive: 12.4 µM [inhibitor, partial curve].

Which Potency does the source give for `O=C(NC1CCCC1)N1c2ccccc2CC1c1noc(C2CCOCC2)n1` (centres undefined) here?
Its Potency is inconclusive: 11.1 µM [inhibitor, partial curve].

Which Potency does the source give for `CN(C)CCNC(=O)c1cccc2c1CCN2C(=O)Nc1ccccc1` here?
Its Potency is active: 0.7 µM.

For `COc1cccc(CC(=O)NCCn2ccn3nc(-c4ccc(C)c(C)c4)cc3c2=O)c1`, which Potency is on record?
Its Potency is inconclusive: 11.1 µM [inhibitor, partial curve].

`c1cncc(Nc2cc3c(cn2)CN(Cc2ccn[nH]2)CCN3)c1` was tested. Which Potency did it give?
Its Potency is inconclusive: 18 µM [inhibitor, partial curve].

How did the Potency turn out when `O=C1c2cnc(-c3ccccc3)nc2OCCN1CC1CC1` was run?
Its Potency is active: 16.1 µM.

Which Potency does the source give for `CN1CCCN(C(=O)Nc2ccc3c(c2)OCCO3)c2ccccc21` here?
The Potency was inconclusive: 9.89 µM [inhibitor, partial curve].

For `CCOc1ccc(-n2nc(CO)c(C(=O)NCc3ccccn3)n2)cc1`, which Potency is on record?
The Potency was inconclusive: 11.1 µM [inhibitor, partial curve, poor fit].

For `Cc1ccc(-n2ncc3c(N(C)C)ncnc32)cc1Cl`, which Potency is on record?
Its Potency is active: 2.21 µM.

Which Potency does the source give for `CC(C)c1ccc(NC(=O)C2CCN(C(=O)c3ncn4c3COC(c3ccccc3)C4)CC2)cc1` (centres undefined) here?
Its Potency is active: 3.51 µM.

With `COc1ccc(NC(=O)Nc2ccc(C)n(CC(=O)N3CCCC(C)C3)c2=O)cc1` (centres undefined) as the compound, how does the Potency read?
The Potency was active: 7.85 µM.

Which Potency does the source give for `COc1ccc(-c2cc3c(cn2)CN(Cc2ccncc2)CCN3)cc1` here?
The Potency was inconclusive: 16.1 µM [inhibitor, partial curve].

`CCN(CC1CCOCC1)C(=O)c1cccnc1SC/C=C/c1ccccc1` was tested. Which Potency did it give?
The Potency was inconclusive: 12.4 µM [inhibitor, partial curve].

With `CCc1ccccc1Nc1nc(-c2cccc(OC)c2OC)no1` as the compound, how does the Potency read?
The Potency was inconclusive: 11.1 µM [inhibitor, partial curve].

Which Potency does the source give for `Fc1ccc2nc([C@H]3CCN(Cc4ccccc4F)C3)[nH]c2c1` here?
The Potency was active: 14.3 µM.

For `CC(=O)N1CCNc2cc(-c3cccc(N4CCOCC4)c3)ncc2C1`, which Potency is on record?
Its Potency is inconclusive: 18 µM [inhibitor, partial curve].

`COc1ccc(-c2cccc(COc3cnc4c(ccn4CC(=O)O)c3)c2)c(C)c1` was tested. Which “activity change, negative = inhibition” value did it give?
The value was inactive: -5.63%.

For `C=CCN(C)C(=O)[C@@H](C)C1CC[C@@]2(C)Cc3sc(NC(=O)CN(C)C)nc3[C@@H](C)[C@@H]2[C@H]1O` (some centres undefined), which “activity change, negative = inhibition” value is on record?
Its value is inactive: -13.3%.

With `COc1ccc(-c2ccc3ncc(Nc4cc(F)cc(N5CCOCC5)c4)n3n2)cc1OC` as the compound, how does the Potency read?
The Potency was inconclusive: 11.1 µM [inhibitor, partial curve].

How did the “activity change, negative = inhibition” value turn out when `Nc1nc2c([nH]c(=O)n2C2CC(O)C(CO)O2)c(=O)[nH]1` (centres undefined) was run?
Its value is inactive: 5.79%.

Which Potency does the source give for `COc1ccc(-c2nc3ccccc3s2)cc1NC(=O)c1cc(OC)c(OC)c(OC)c1` here?
Its Potency is inconclusive: 1.57 µM [inhibitor, full curve, poor fit].

How did the Potency turn out when `Cc1cn2nc(C(=O)NCCc3ccccc3)cc2c(=O)[nH]1` was run?
The Potency was inconclusive: 11.1 µM [inhibitor, partial curve].

With `Cc1ccc(C2Cn3nnc(C(=O)N4CCC(C(=O)NCCN5CCCC5)CC4)c3CO2)cc1` (centres undefined) as the compound, how does the Potency read?
Its Potency is inconclusive: 9.89 µM [inhibitor, partial curve].

Which “activity change, negative = inhibition” value does the source give for `O=C(Nc1ccc(O)c(-c2nc3ccccc3s2)c1)c1cc2ccccc2o1` here?
Its value is inactive: -1.32%.

How did the “activity change, negative = inhibition” value turn out when `COc1cccc(-n2cc(CN(C)c3ncncn3)cn2)c1` was run?
The value was inactive: -15.6%.

`Cc1cc2c(c(-c3nc4ccccc4s3)c1)OC(CNC(=O)c1occc1C)C2` (centres undefined) was tested. Which Potency did it give?
Its Potency is inconclusive: 12.4 µM [inhibitor, partial curve].

With `Cc1cc(CNC(=O)CC2C=CS(=O)(=O)C2)c2[nH]c(-c3ccccc3)c(C)c2c1` (centres undefined) as the compound, how does the Potency read?
The Potency was inconclusive: 11.1 µM [inhibitor, partial curve].

Which Potency does the source give for `CN(Cc1nccs1)c1ccc(-c2nc(-c3ccccc3F)no2)cn1` here?
The Potency was inconclusive: 9.89 µM [inhibitor, partial curve].

With `CC(C)c1ccc(C(=O)Nc2ccc(-c3nc4ccccc4s3)c(Cl)c2)cc1` as the compound, how does the “activity change, negative = inhibition” value read?
The value was inactive: -8.8%.

How did the Potency turn out when `CC1CCC(NC(=O)c2noc(-c3ccccc3F)n2)CC1` (centres undefined) was run?
The Potency was inconclusive: 12.4 µM [inhibitor, single point].

`O=C(Nc1ccccc1C(=O)O)c1cccc(S(=O)(=O)N2CCCC2)c1` was tested. Which Potency did it give?
Its Potency is inconclusive: 12.4 µM [inhibitor, partial curve].

With `COc1ccc2nc(-c3ccc(N4CCN(C(=O)OC(C)(C)C)CC4)cc3)sc2c1` as the compound, how does the Potency read?
The Potency was inconclusive: 14 µM [inhibitor, partial curve, poor fit].

With `CC(=O)N1CCNc2cc(-c3ccccc3F)ncc2C1` as the compound, how does the Potency read?
The Potency was inconclusive: 28.5 µM [inhibitor, single point].

Which Potency does the source give for `O=C(Nc1cccc(-c2ccc(N3CCOCC3)nn2)c1)Nc1cc(F)ccc1F` here?
The Potency was active: 2.48 µM.

With `CC(Oc1ccccc1F)C(=O)Nc1ccc(-c2nc3ccccc3s2)cc1` (centres undefined) as the compound, how does the Potency read?
Its Potency is inconclusive: 8.81 µM [inhibitor, partial curve, poor fit].

`Oc1ccccc1CN1CCNc2cc(-c3ccccc3)ncc2C1` was tested. Which Potency did it give?
Its Potency is inconclusive: 16.1 µM [inhibitor, partial curve].
